# Data taken from the supplement of paper PMC8728848.
# Some of the results follow.
# Legend:
# Test in all cases: glycan array binding signal (z-score within array); higher = stronger binding
# Conditions in all cases: glycan notation: IUPAC condensed, linker removed
# [1] = biological target: Neu5Ac(a2-3)Gal(b1-3)GlcNAc(b1-2)Man(a1-3)[Neu5Ac(a2-3)Gal(b1-3)GlcNAc(b1-2)Man(a1-6)]Man(b1-4)GlcNAc(b1-4)GlcNAc
# How it was run: (§1)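 Arrays were curated from the Consortium for Functional Glycomics database, 3228 in total, and kept only where the protein sequence was available. Binding is expressed as a within-array Z-score. This score was averaged across arrays of the same protein sequence at different concentrations or buffers and across linkers, and negative values can be read as non-binding.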
# [2] = biological target: Neu5Ac(a2-3)Gal(b1-3)GlcNAc(b1-3)Gal(b1-3)GlcNAc
# How it was run: as §1
# [3] = biological target: Neu5Ac(a2-3)Gal(b1-3)GlcNAc(b1-3)Gal(b1-4)GlcNAc
# How it was run: as §1
# [4] = biological target: Neu5Ac(a2-3)Gal(b1-3)GlcNAc(b1-3)GalNAc
# How it was run: as §1
# [5] = biological target: Neu5Ac(a2-3)Gal(b1-3)GlcNAc(b1-4)Gal(b1-4)Glc
# How it was run: as §1
# [6] = biological target: Neu5Ac(a2-3)Gal(b1-3)GlcNAc(b1-6)GalNAc
# How it was run: as §1
# [7] = biological target: Neu5Ac(a2-3)Gal(b1-3)GlcNAc6S
# How it was run: as §1
# [8] = biological target: Neu5Ac(a2-3)Gal(b1-3)[Fuc(a1-4)]GlcNAc
# How it was run: as §1
# [9] = biological target: Neu5Ac(a2-3)Gal(b1-3)[Fuc(a1-4)]GlcNAc(b1-3)Gal(b1-3)[Fuc(a1-4)]GlcNAc
# How it was run: as §1
# [10] = biological target: Neu5Ac(a2-3)Gal(b1-3)[Fuc(a1-4)]GlcNAc(b1-3)Gal(b1-4)[Fuc(a1-3)]GlcNAc
# How it was run: as §1
# [11] = biological target: Neu5Ac(a2-3)Gal(b1-3)[GlcNAc(b1-6)]GalNAc
# How it was run: as §1
# [12] = biological target: Neu5Ac(a2-3)Gal(b1-3)[Neu5Ac(a2-3)Gal(b1-4)]GlcNAc
# How it was run: as §1
# [13] = biological target: Neu5Ac(a2-3)Gal(b1-3)[Neu5Ac(a2-6)]GalNAc
# How it was run: as §1
# [14] = biological target: Neu5Ac(a2-3)Gal(b1-3)[Neu5Ac(a2-6)]GlcNAc(b1-3)[Fuc(a1-3)[Gal(b1-4)]GlcNAc(b1-6)]Gal(b1-4)Glc
# How it was run: as §1
# [15] = biological target: Neu5Ac(a2-3)Gal(b1-3)]Neu5Ac(a2-3)Gal(b1-4)]GlcNAc
# How it was run: as §1
# Neu5Ac(a2-3)Gal(b1-4)Glc = biological target: Neu5Ac(a2-3)Gal(b1-4)Glc
# How it was run: as §1
# [16] = biological target: Neu5Ac(a2-3)Gal(b1-4)GlcNAc
# How it was run: as §1
# [17] = biological target: Neu5Ac(a2-3)Gal(b1-4)GlcNAc(b1-2)Man
# How it was run: as §1
# [18] = biological target: Neu5Ac(a2-3)Gal(b1-4)GlcNAc(b1-2)Man(a1-3)[GlcNAc(b1-2)Man(b1-4)GlcNAc(b1-2)Man(a1-6)]Man(b1-4)GlcNAc(b1-4)GlcNAc
# How it was run: as §1
# [19] = biological target: Neu5Ac(a2-3)Gal(b1-4)GlcNAc(b1-2)Man(a1-3)[GlcNAc(b1-4)][Neu5Ac(a2-3)Gal(b1-4)GlcNAc(b1-2)Man(a1-6)]Man(b1-4)GlcNAc(b1-4)GlcNAc
# How it was run: as §1
# [20] = biological target: Neu5Ac(a2-3)Gal(b1-4)GlcNAc(b1-2)Man(a1-3)[Neu5Ac(a2-3)Gal(b1-4)GlcNAc(b1-2)Man(a1-6)]Man(b1-4)GlcNAc(b1-4)GlcNAc
# How it was run: as §1
# [21] = biological target: Neu5Ac(a2-3)Gal(b1-4)GlcNAc(b1-2)Man(a1-3)[Neu5Ac(a2-3)Gal(b1-4)GlcNAc(b1-2)Man(a1-6)]Man(b1-4)GlcNAc(b1-4)[Fuc(a1-6)]GlcNAc
# How it was run: as §1
# [22] = biological target: Neu5Ac(a2-3)Gal(b1-4)GlcNAc(b1-2)Man(a1-3)[Neu5Ac(a2-6)Gal(b1-4)GlcNAc(b1-2)Man(a1-6)]Man(b1-4)GlcNAc(b1-4)GlcNAc
# How it was run: as §1
# [23] = biological target: Neu5Ac(a2-3)Gal(b1-4)GlcNAc(b1-2)[Neu5Ac(a2-3)Gal(b1-4)GlcNAc(b1-4)]Man(a1-3)[GlcNAc(b1-4)][Neu5Ac(a2-3)Gal(b1-4)GlcNAc(b1-2)[Neu5Ac(a2-3)Gal(b1-4)GlcNAc(b1-6)]Man(a1-6)]Man(b1-4)GlcNAc(b1-4)GlcNAc
# How it was run: as §1
# [24] = biological target: Neu5Ac(a2-3)Gal(b1-4)GlcNAc(b1-2)[Neu5Ac(a2-3)Gal(b1-4)GlcNAc(b1-4)]Man(a1-3)[GlcNAc(b1-4)][Neu5Ac(a2-3)Gal(b1-4)GlcNAc(b1-4)Man(a1-6)]Man(b1-4)GlcNAc(b1-4)GlcNAc
# How it was run: as §1
# [25] = biological target: Neu5Ac(a2-3)Gal(b1-4)GlcNAc(b1-2)[Neu5Ac(a2-3)Gal(b1-4)GlcNAc(b1-6)]Man(a1-6)[Neu5Ac(a2-3)Gal(b1-4)GlcNAc(b1-2)Man(a1-3)]Man(b1-4)GlcNAc(b1-4)GlcNAc
# How it was run: as §1
# [26] = biological target: Neu5Ac(a2-3)Gal(b1-4)GlcNAc(b1-2)[Neu5Ac(a2-3)Gal(b1-4)GlcNAc(b1-6)]Man(a1-6)[Neu5Ac(a2-3)Gal(b1-4)GlcNAc(b1-2)Man(a1-3)][GlcNAc(b1-4)]Man(b1-4)GlcNAc(b1-4)GlcNAc
# How it was run: as §1
# [27] = biological target: Neu5Ac(a2-3)Gal(b1-4)GlcNAc(b1-3)Gal
# How it was run: as §1
# [28] = biological target: Neu5Ac(a2-3)Gal(b1-4)GlcNAc(b1-3)Gal(b1-3)GlcNAc
# How it was run: as §1
# [29] = biological target: Neu5Ac(a2-3)Gal(b1-4)GlcNAc(b1-3)Gal(b1-4)GlcNAc
# How it was run: as §1
# [30] = biological target: Neu5Ac(a2-3)Gal(b1-4)GlcNAc(b1-3)Gal(b1-4)GlcNAc(b1-2)Man(a1-3)[Neu5Ac(a2-3)Gal(b1-4)GlcNAc(b1-3)Gal(b1-4)GlcNAc(b1-2)Man(a1-6)]Man(b1-4)GlcNAc(b1-4)GlcNAc
# How it was run: as §1
# [31] = biological target: Neu5Ac(a2-3)Gal(b1-4)GlcNAc(b1-3)Gal(b1-4)GlcNAc(b1-3)Gal(b1-4)GlcNAc
# How it was run: as §1
# [32] = biological target: Neu5Ac(a2-3)Gal(b1-4)GlcNAc(b1-3)Gal(b1-4)GlcNAc(b1-3)Gal(b1-4)GlcNAc(b1-2)Man(a1-3)[Neu5Ac(a2-3)Gal(b1-4)GlcNAc(b1-3)Gal(b1-4)GlcNAc(b1-3)Gal(b1-4)GlcNAc(b1-2)Man(a1-6)]GalNAc
# How it was run: as §1
# [33] = biological target: Neu5Ac(a2-3)Gal(b1-4)GlcNAc(b1-3)Gal(b1-4)GlcNAc(b1-3)GalNAc
# How it was run: as §1
# [34] = biological target: Neu5Ac(a2-3)Gal(b1-4)GlcNAc(b1-3)Gal(b1-4)GlcNAc(b1-3)[Neu5Ac(a2-3)Gal(b1-4)GlcNAc(b1-3)Gal(b1-4)GlcNAc(b1-6)]GalNAc
# How it was run: as §1
# [35] = biological target: Neu5Ac(a2-3)Gal(b1-4)GlcNAc(b1-3)Gal(b1-4)GlcNAc(b1-6)[Gal(b1-3)]GalNAc
# How it was run: as §1
# [36] = biological target: Neu5Ac(a2-3)Gal(b1-4)GlcNAc(b1-3)Gal(b1-4)[Fuc(a1-3)]GlcNAc
# How it was run: as §1
# [37] = biological target: Neu5Ac(a2-3)Gal(b1-4)GlcNAc(b1-3)GalNAc
# How it was run: as §1
# [38] = biological target: Neu5Ac(a2-3)Gal(b1-4)GlcNAc(b1-3)[Neu5Ac(a2-3)Gal(b1-4)GlcNAc(b1-6)]GalNAc
# How it was run: as §1
# [39] = biological target: Neu5Ac(a2-3)Gal(b1-4)GlcNAc(b1-6)GalNAc
# How it was run: as §1
# [40] = biological target: Neu5Ac(a2-3)Gal(b1-4)GlcNAc(b1-6)[Gal(b1-3)]GalNAc
# How it was run: as §1
# [41] = biological target: Neu5Ac(a2-3)Gal(b1-4)GlcNAc(b1-6)[Neu5Ac(a2-3)Gal(b1-3)]GalNAc
# How it was run: as §1
# [42] = biological target: Neu5Ac(a2-3)Gal(b1-4)GlcNAc6S
# How it was run: as §1
# [43] = biological target: Neu5Ac(a2-3)Gal(b1-4)[Fuc(a1-3)]GlcNAc
# How it was run: as §1
# [44] = biological target: Neu5Ac(a2-3)Gal(b1-4)[Fuc(a1-3)]GlcNAc(b1-2)Man
# How it was run: as §1
binder,measurement,setting,value
OrysaEULS2 (Oryza sativa) (protein) MVYCRANPNYAMTARNGAVVLAPANPKDEYQHWIKDMRWSTSIKDEEGYPAFALVNKATGQAIKHSLGQSHPVRLVPYNPEVMDESVLWTESRDVGNGFRCIRMVNNIYLNFDAFHGDKYHGGVRDGTDIVLWKWCEGDNQRWKIQPYYILEQKLISEEDLNSAVDHHHHHH,glycan array binding signal (z-score),[1],-0.152
same,glycan array binding signal (z-score),[2],-0.211
same,glycan array binding signal (z-score),[3],-0.2
same,glycan array binding signal (z-score),[4],-0.195
same,glycan array binding signal (z-score),[5],-0.24
same,glycan array binding signal (z-score),[6],-0.202
same,glycan array binding signal (z-score),[7],-0.191
same,glycan array binding signal (z-score),[8],-0.222
same,glycan array binding signal (z-score),[9],-0.21
same,glycan array binding signal (z-score),[10],-0.152
same,glycan array binding signal (z-score),[11],-0.241
same,glycan array binding signal (z-score),[12],-0.182
same,glycan array binding signal (z-score),[13],-0.172
same,glycan array binding signal (z-score),[14],-0.216
same,glycan array binding signal (z-score),[15],-0.248
same,glycan array binding signal (z-score),Neu5Ac(a2-3)Gal(b1-4)Glc,-0.193
same,glycan array binding signal (z-score),[16],-0.193
same,glycan array binding signal (z-score),[17],-0.152
same,glycan array binding signal (z-score),[18],0.355
same,glycan array binding signal (z-score),[19],-0.219
same,glycan array binding signal (z-score),[20],0.557
same,glycan array binding signal (z-score),[21],-0.057
same,glycan array binding signal (z-score),[22],1.04
same,glycan array binding signal (z-score),[23],-0.243
same,glycan array binding signal (z-score),[24],-0.273
same,glycan array binding signal (z-score),[25],0.194
same,glycan array binding signal (z-score),[26],-0.099
same,glycan array binding signal (z-score),[27],-0.196
same,glycan array binding signal (z-score),[28],-0.192
same,glycan array binding signal (z-score),[29],-0.222
same,glycan array binding signal (z-score),[30],0.115
same,glycan array binding signal (z-score),[31],-0.187
same,glycan array binding signal (z-score),[32],0.048
same,glycan array binding signal (z-score),[33],-0.304
same,glycan array binding signal (z-score),[34],-0.252
same,glycan array binding signal (z-score),[35],-0.307
same,glycan array binding signal (z-score),[36],-0.206
same,glycan array binding signal (z-score),[37],-0.192
same,glycan array binding signal (z-score),[38],-0.208
same,glycan array binding signal (z-score),[39],-0.148
same,glycan array binding signal (z-score),[40],-0.197
same,glycan array binding signal (z-score),[41],-0.208
same,glycan array binding signal (z-score),[42],-0.193
same,glycan array binding signal (z-score),[43],-0.198
same,glycan array binding signal (z-score),[44],-0.235
